# Laboratory results from US20200308274A1.
# B1: Antibody M (Fc fusion)
# scFv: DIQMTQSPSSLSASVGDRVTITCRASQSVAAAVAWYQQKPDKAPKLLIYSASFLYSGVPSRFSGSRSGTDFTLTISSLQPEDFATYYCQQHNTYPPTFGQGTKVEIKRTSPNSASHSGSAPQTSSAPGSQEVQLVESGGGLVQPGGSLRLSCAASGFNIKDTYIHWVRQAPGKGLEWVARISPSSGSTRYAGSVKGRFTISADTSKNTAYLQMNSLRAEDTAVYYCAREWYEASYYDWFDYFDFSDYWGQGTLVTVSSAAA[human IgG1 Fc not written out]GSHHHHHHKLDYKDHDGDYKDHDIDYKDDDDK
# Key:
# [1] = biological target: liraglutide fibrils (human) (UniProt P01275); assay: ELISA Assay (VI-B); 0.1 uM fibrils in 1600 uM soluble liraglutide; 50 nM antibody; average of 4 experiments
# [2] = biological target: liraglutide fibrils (human) (UniProt P01275); assay: ELISA Assay (VI-B); 0.010 uM fibrils in 1600 uM soluble liraglutide; 50 nM antibody
# [3] = biological target: liraglutide fibrils (human) (UniProt P01275); assay: ELISA Assay (III-B); row labelled 100 uM; two-step purified antibody; A450 ratio, mean of 3
# [4] = biological target: liraglutide fibrils (human) (UniProt P01275); assay: ELISA Assay (III-B); row labelled 30 uM; two-step purified antibody; raw signal, mean of 3
# [5] = biological target: soluble liraglutide (human) (UniProt P01275); assay: as above
# [6] = biological target: liraglutide fibrils (human) (UniProt P01275); assay: ELISA Assay (III-B); row labelled 0.30 uM; two-step purified antibody; raw signal, mean of 3
# [7] = biological target: soluble liraglutide (human) (UniProt P01275); assay: as above
# [8] = biological target: liraglutide fibrils (human) (UniProt P01275); assay: ELISA Assay (VI-B); 0.0025 uM fibrils in 1600 uM soluble liraglutide; 50 nM antibody
# [9] = biological target: liraglutide fibrils (human) (UniProt P01275); assay: ELISA Assay (VI-B); 0.250 uM fibrils in 1600 uM soluble liraglutide; 50 nM antibody
# [10] = biological target: liraglutide fibrils (human) (UniProt P01275); assay: ELISA Assay (VI-B); 0.100 uM fibrils in 1600 uM soluble liraglutide; 50 nM antibody
# [11] = biological target: liraglutide fibrils (human) (UniProt P01275); assay: ELISA Assay (III-B); row labelled 0.1 uM; two-step purified antibody; A450 ratio, mean of 3
# [12] = biological target: liraglutide fibrils (human) (UniProt P01275); assay: ELISA Assay (VI-B); 0.0025 uM fibrils in 1600 uM soluble liraglutide; 50 nM antibody; remark: listed apart in the source
# [13] = biological target: liraglutide fibrils (human) (UniProt P01275); assay: ELISA Assay (VI-B); 0.0025 uM fibrils in 1600 uM soluble liraglutide; 50 nM antibody; average of 4 experiments
# [14] = biological target: liraglutide fibrils (human) (UniProt P01275); assay: ELISA Assay (III-B); row labelled 100 uM; two-step purified antibody; raw signal, mean of 3
# [15] = biological target: soluble liraglutide (human) (UniProt P01275); assay: as above
# [16] = biological target: liraglutide fibrils (human) (UniProt P01275); assay: ELISA Assay (VI-B); 2.5 uM fibrils in 1600 uM soluble liraglutide; 50 nM antibody
# [17] = biological target: liraglutide fibrils (human) (UniProt P01275); assay: ELISA Assay (VI-B); 0.25 uM fibrils in 1600 uM soluble liraglutide; 50 nM antibody; average of 4 experiments
# [18] = biological target: liraglutide fibrils (human) (UniProt P01275); assay: ELISA Assay (VI-B); 0.01 uM fibrils in 1600 uM soluble liraglutide; 50 nM antibody; average of 4 experiments
# [19] = biological target: liraglutide fibrils (human) (UniProt P01275); assay: ELISA Assay (III-B); row labelled 300 uM; two-step purified antibody; raw signal, mean of 3
# [20] = biological target: soluble liraglutide (human) (UniProt P01275); assay: as above
# [21] = biological target: liraglutide fibrils (human) (UniProt P01275); assay: ELISA Assay (VI-B); 0.025 uM fibrils in 1600 uM soluble liraglutide; 50 nM antibody
# [22] = biological target: liraglutide fibrils (human) (UniProt P01275); assay: ELISA Assay (III-B); row labelled 1 uM; two-step purified antibody; A450 ratio, mean of 3
# [23] = biological target: liraglutide fibrils (human) (UniProt P01275); assay: ELISA Assay (III-B); row labelled 0.03 uM; two-step purified antibody; A450 ratio, mean of 3
# [24] = biological target: liraglutide fibrils (human) (UniProt P01275); assay: ELISA Assay (III-B); row labelled 0.01 uM; two-step purified antibody; A450 ratio, mean of 3
# [25] = biological target: liraglutide fibrils (human) (UniProt P01275); assay: ELISA Assay (III-B); row labelled 300 uM; two-step purified antibody; A450 ratio, mean of 3
# [26] = biological target: liraglutide fibrils (human) (UniProt P01275); assay: ELISA Assay (III-B); row labelled 0.10 uM; two-step purified antibody; raw signal, mean of 3
# [27] = biological target: soluble liraglutide (human) (UniProt P01275); assay: as above
# [28] = biological target: liraglutide fibrils (human) (UniProt P01275); assay: ELISA Assay (III-B); row labelled 10 uM; two-step purified antibody; A450 ratio, mean of 3
# [29] = biological target: liraglutide fibrils (human) (UniProt P01275); assay: ELISA Assay (VI-B); 0.025 uM fibrils in 1600 uM soluble liraglutide; 50 nM antibody; average of 4 experiments
# [30] = biological target: liraglutide fibrils (human) (UniProt P01275); assay: ELISA Assay (III-B); row labelled 0.3 uM; two-step purified antibody; A450 ratio, mean of 3
# [31] = biological target: liraglutide fibrils (human) (UniProt P01275); assay: ELISA Assay (VI-B); 1 uM fibrils in 1600 uM soluble liraglutide; 50 nM antibody; average of 4 experiments
# [32] = biological target: liraglutide fibrils (human) (UniProt P01275); assay: ELISA Assay (VI-B); 0.001 uM fibrils in 1600 uM soluble liraglutide; 50 nM antibody; average of 4 experiments
# [33] = biological target: liraglutide fibrils (human) (UniProt P01275); assay: ELISA Assay (III-B); row labelled 3 uM; two-step purified antibody; A450 ratio, mean of 3
binder,measurement,setting,value
B1,Specificity Ratio (liraglutide fibril in mixture/soluble liraglutide),[1],32.1
same,Specificity Ratio (liraglutide fibril in mixture/soluble liraglutide),[2],6.81
same,Liraglutide fibril specificity (Liraglutide fibril/Liraglutide monomer),[3],13.1
same,antibody binding signal (absorbance at 450 nm),[4],1.69
same,antibody binding signal (absorbance at 450 nm),[5],0.1
same,antibody binding signal (absorbance at 450 nm),[6],0.09
same,antibody binding signal (absorbance at 450 nm),[7],0.05
same,Specificity Ratio (liraglutide fibril in mixture/soluble liraglutide),[8],2.45
same,Specificity Ratio (liraglutide fibril in mixture/soluble liraglutide),[9],40.8
same,Specificity Ratio (liraglutide fibril in mixture/soluble liraglutide),[10],32.1
same,Liraglutide fibril specificity (Liraglutide fibril/Liraglutide monomer),[11],1.61
same,Specificity Ratio (liraglutide fibril in mixture/soluble liraglutide),[12],3.53 and 1.66 and 2.16
same,Specificity Ratio (liraglutide fibril in mixture/soluble liraglutide),[13],2.45
same,antibody binding signal (absorbance at 450 nm),[14],2.78
same,antibody binding signal (absorbance at 450 nm),[15],0.21
same,Specificity Ratio (liraglutide fibril in mixture/soluble liraglutide),[16],50.4 (2×) and 46.6 and 45.8
same,Specificity Ratio (liraglutide fibril in mixture/soluble liraglutide),[17],40.8
same,Specificity Ratio (liraglutide fibril in mixture/soluble liraglutide),[18],6.81
same,antibody binding signal (absorbance at 450 nm),[19],3.15
same,antibody binding signal (absorbance at 450 nm),[20],0.46
same,Specificity Ratio (liraglutide fibril in mixture/soluble liraglutide),[21],14.4
same,Liraglutide fibril specificity (Liraglutide fibril/Liraglutide monomer),[22],3.21
same,Liraglutide fibril specificity (Liraglutide fibril/Liraglutide monomer),[23],1.58
same,Liraglutide fibril specificity (Liraglutide fibril/Liraglutide monomer),[24],1.39
same,Liraglutide fibril specificity (Liraglutide fibril/Liraglutide monomer),[25],6.81
same,antibody binding signal (absorbance at 450 nm),[26],0.07
same,antibody binding signal (absorbance at 450 nm),[27],0.04
same,Liraglutide fibril specificity (Liraglutide fibril/Liraglutide monomer),[28],11.7
same,Specificity Ratio (liraglutide fibril in mixture/soluble liraglutide),[29],14.4
same,Liraglutide fibril specificity (Liraglutide fibril/Liraglutide monomer),[30],1.9
same,Specificity Ratio (liraglutide fibril in mixture/soluble liraglutide),[31],46.6
same,Specificity Ratio (liraglutide fibril in mixture/soluble liraglutide),[32],1.43
same,Liraglutide fibril specificity (Liraglutide fibril/Liraglutide monomer),[33],5.9

# Several values for one entry are separate records, joined by “and”; a condition that tells them apart may be missing. Identical values can stand only once.
